Source: ChEMBL document CHEMBL1157539, “Thousands of chemical starting points for antimalarial lead identification” (Nature, 2010)
In all, about 13,000 compounds were measured (“IFI”: median about 4, highest 2% from about 17 on). The list shows a part of the results.

assay: GSK_TCMDC: Inhibition Frequency Index (IFI). The number of non-kinase HTS assays where a compound showed > 50 % inhibition, expressed as a percentage of the number of such assays in which the compound was tested (-0 is zero); assay type: functional

| SMILES | IFI [%] |
| --- | --- |
| CC(=O)Nc1nc(C(=O)Nc2ccc(-c3ccc(-c4nc5cccc(C)c5[nH]4)cc3)cc2)cs1 | 5.17 |
| N#Cc1cccc(C(=O)Nc2ccc(-c3cccc(CN4CCCC4)c3)cc2)c1 | 3.96 |
| O=C(Nc1ccc(C(F)(F)F)cc1)NC1CCN(c2ccnc3cc(Cl)ccc23)C1 (centres undefined) | 4.41 |
| COc1ccc(Nc2nccc(N3CCC(NC(=O)c4cc5ccccc5s4)C3)n2)cc1 (centres undefined) | 4.55 |
| CN(C)CCN(C)Cc1ccc(-c2cccc(NC(=O)c3cccc(C#N)c3)c2)cc1 | 1.92 |
| O=C(Nc1ccc(Oc2ccccc2)cc1)N(CCN1CCCC1)Cc1ccc(-c2ccc(CN3CCNCC3)cc2)cc1 | 8.84 |
| FC(F)(F)c1cc(Nc2ncnc3ccc(Br)cc23)ccc1OCc1ccccc1 | 2.19 |
| CCCCCCCN1CC[C@@H](CCCc2ccnc3ccc(OCCC4CCNCC4)cc23)[C@@H](CC)C1 | 10.9 |
| Cc1ncc(CN2CCC(C(=O)Nc3ccc(-c4nc5ccccc5o4)cc3)CC2)s1 | -0 |
| O=C(Cc1ccc(Nc2nccc(Nc3cccc4[nH]ncc34)n2)cc1)Nc1ccc(C(F)(F)F)cc1 | 10 |
| CCN(Cc1cccc2ccccc12)c1ccc2nc(N)nc(N)c2c1 | 13.3 |
| Cc1cc(NC(=O)c2ccco2)ccc1OC1CCN(Cc2ccc(C#N)cc2)CC1 | 1.59 |
| Cc1ccccc1C1CCN(C2CCC(NC(=O)/C=C/c3c[nH]c4ccccc34)CC2)CC1 (centres undefined) | 7.14 |
| COc1ccc(-c2cccc(NC(=O)c3cccc(C#N)c3)c2)cc1CN1CCCN(C)CC1 | 5.88 |
| c1ccc(CN2CCC(NCc3ccc(-c4ccc(CNC5CCCC5)cc4)cc3)CC2)cc1 | 4.17 |
| CN(C)CCN1CCN(Cc2cccc(-c3csc(-c4nc5ccccc5[nH]4)c3)c2)CC1 | 9.33 |
| CCCN1CC[C@@H](CCCc2ccnc3ccc(O)cc23)[C@@H](CC)C1 | 1.41 |
| COc1ccc2[nH]c(C)cc(=NN=Cc3ccc(F)cc3)c2c1 | 3.01 |
| Cc1ccc(-n2cc(CNCCc3nc(C)c[nH]3)c(-c3ccc(F)cc3)n2)cc1 | 13.6 |
| O=C(Nc1cccc(C(F)(F)F)c1)Nc1ccc(F)c([N+](=O)[O-])c1 | 15.8 |
| OCC1CCN(Cc2ccc(-c3ccc(-c4nc5cc(F)ccc5[nH]4)cc3)cc2)CC1 | 2.94 |
| CCN(CCCN1CCCCC1)c1cc(C)nc(Nc2ccc(C)cc2Cl)n1 | 2.56 |
| Cc1nc(-c2cccc(Nc3nccc(NCC(O)c4ccc(C(F)(F)F)cc4)n3)c2)cs1 (centres undefined) | 12 |

| SMILES | IFI [%] |
| --- | --- |
| CCCC(C)Nc1nc(C)cc(N[C@@H](Cc2ccccc2)C(=O)NCCOc2ccccc2)n1 (some centres undefined) | 9.09 |
| C#CCOc1ccccc1CN1CCC(N2CCc3cc(NC(=O)c4cc(C)on4)ccc32)C1 (centres undefined) | 0 |
| COc1ccc2[nH]c(C)cc(=NN=Cc3ccccc3Cl)c2c1 | 1.5 |
| Cc1cnc(C(=O)Nc2cccc(-c3ccc(-c4nc5cc(F)ccc5[nH]4)cc3)c2)cn1 | 4.46 |
| Cc1[nH]c(C)c(-c2ccc(-c3ccccc3Cl)nc2)c(=O)c1Cl | 0 |
| CCNc1cc(C(=O)N[C@@H](Cc2ccc(F)c(F)c2)[C@H](O)CNCc2cccc(OC)c2)cc(N2CCCCS2(=O)=O)c1 | 3.57 |
| Clc1ccc(C=NNc2ccnc3cc(Cl)ccc23)cc1 | 3.03 |
| COC(=O)CNC(c1ccccc1)c1cc(Br)ccc1NC(=O)c1ccccc1Br (centres undefined) | 0.76 |
| CO/C(=C\C=C\c1cc2cc(Cl)c(Cl)cc2[nH]1)C(=O)NCCCN(C)CCN(C)c1ccccc1 | 10 |
| COc1ccccc1C1CN(CCNC(=O)c2nc(C)c[nH]2)Cc2ccccc2O1 (centres undefined) | -0 |
| CCn1c(-c2cc(C)on2)nc2cnc(Oc3ccc(C(=O)N4CC(=O)N(C)C4C(C)(C)C)cc3)cc21 (centres undefined) | 7.14 |
| COc1ccc2nccc([C@@H](O)CN3CCC(NCCOc4ccccc4C#N)CC3)c2c1 | 2.21 |
| Cn1cncc1C(=O)Nc1cccc(-c2ccc(-c3nc4ccccc4[nH]3)s2)c1 | 0.9 |
| CC(C)(C)c1ccc(CN2CCCCC(NC(=O)c3cc(-c4ccccc4F)cs3)C2)cc1 (centres undefined) | 5.45 |
| COc1ccc(CNC2Cc3ccccc3C2)cc1-c1ccc(S(=O)(=O)NCCN2CCCC2)s1 | 12.8 |
| Cc1cc(-c2nc3cc(C(=N)N)ccc3[nH]2)c(C)cc1-c1nc2cc(C(=N)N)ccc2[nH]1 | 7.14 |
| O=C(c1ccc2ccccc2n1)N1CCCc2cc(Br)ccc21 | 2.38 |
| CC[C@@H]([C@@H](Cc1cc2ccccc2s1)C(=O)N[C@@H](CCCCNC(=O)OCc1ccccc1)C(=O)Nc1ccccn1)N(O)C=O | 2.27 |
| COc1cc2nc(N(C)C)nc(Nc3ccc4c(cnn4Cc4ccccc4)c3)c2cc1OC | 10.2 |
| O=S(=O)(Nc1cccc(CCN2CCC(N3CCCCC3)CC2)c1)c1ccc2c(c1)OCCO2 | 0 |
| Cn1ccnc1-c1nc2ccccn2c1NCC(=O)Nc1ccccc1N1CCCCC1 | 1.45 |
| Cc1cc(=NN=Cc2ccc(F)cc2)c2cc(C(F)(F)F)ccc2[nH]1 | 0.71 |
| CCCCN(CCCC)C(=N)c1cccc2c1CCCC2 | 2.21 |

| SMILES | IFI [%] |
| --- | --- |
| Fc1ccc(C2N=C(SCCSC3=NC(c4ccc(F)cc4)C(c4ccc(F)cc4)N3)NC2c2ccc(F)cc2)cc1 (centres undefined) | 2.11 |
| Cc1cc(N[C@@H](Cc2ccccc2)C(=O)NCCOc2ccccc2)nc(NCCc2ccc(F)cc2)n1 | 11.4 |
| CC(=O)c1cccc2cc(C(=O)NC3CCC(CCN4CCc5ccc(C#N)cc5C4)CC3)[nH]c12 (centres undefined) | 3.79 |
| CCNC(C)(C)CN(Cc1ccc(-c2ccc(C(F)(F)F)cc2)cc1)C(=O)Cn1c(CCc2cccc(F)c2F)nc(=O)c2ccccc21 | 6.94 |
| O=C(NCCCCN1CCC(c2ccc3c(c2OCCOCCO)CCCC3)CC1)c1ccc(-c2ccc(C(F)(F)F)cc2)cc1 | 7.96 |
| NS(=O)(=O)NCCCN1CCN(c2ccccc2)CC1 | -0 |
| O=C(Nc1ccc(C(=O)OCC(c2ccccc2)c2ccccc2)cc1)N[C@@H](Cc1ccc(O)cc1)C(=O)NC1CCN(Cc2ccc(O)cc2)C1 (some centres undefined) | 9.4 |
| COc1ccc(Nc2ncc3c(-c4cccc(NC(=O)Cc5ccncc5)c4)c[nH]c3n2)cc1OC | 5.71 |
| COc1ccc(C2CC(=O)C3=C(C2)NC(C)=C(C(=O)OC(C)C)C3c2c(F)cccc2Cl)cc1OC (centres undefined) | 0.83 |
| CNC(=O)C1Cc2c([nH]c3ccc(Br)cc23)C2(CCN(CCc3ccccc3)CC2)N1 (centres undefined) | 6.57 |
| COc1ccc2nccc([C@@H](O)CN3CCC(NC(=O)c4ccc5cc[nH]c5c4)CC3)c2c1 | 2.24 |
| CCCC(CNCc1cccc(SC(F)(F)F)c1)CNc1cc(=O)c2ccccc2[nH]1 (centres undefined) | 1.45 |
| Cc1ccc(Cn2cnc(N3CC(C)NC(C)C3)cc2=O)cc1NC(=O)Nc1ccc(-c2ccccc2)cc1 (centres undefined) | 3.6 |
| CS(=O)(=O)c1cccc(-c2ccc3oc(C(N)=O)c(NC(=O)c4cccs4)c3c2)c1 | 8.65 |
| COc1cc(NCCCNC(=O)c2ccc(Cl)c(Cl)c2)nc2ccccc12 | 12.5 |
| COc1ccc(C(=O)C2CCN(CCCCNC(=O)c3ccc(NC(=O)c4cc(Cl)cc(Cl)c4)cc3)CC2)cc1 | 10.5 |
| CC(C)n1c(CC2CCN(CC3CCN(C(=O)/C=C/c4ccc(Cl)c(Cl)c4)CC3)CC2)nc2ccccc21 | 3.65 |
| CCN(CCCN1CCCCC1)c1cc(C)nc(Nc2ccc(Cl)cc2)n1 | 4.86 |
| CC(C)Cc1nc(N2CCOCC2)c2nnn(Cc3ccccc3)c2n1 | 1.75 |
| COC(=O)C1(NC(=O)c2ccc(-n3nc(C)c(-c4ccccc4)c3N)cc2)CCCC1 | 1.41 |
| CNC(=O)NC1=NC(C)(C)N(OCc2ccc(Cl)c(Cl)c2)C(NC(=O)NC)=N1 | 0.72 |
| O=C(NC1CC1)c1ccc(N2CCC(COc3cccc(F)c3)CC2)nc1 | 6.12 |
| OC(c1cccc2ccccc12)C1CN(CCc2ccccc2)CCC1(O)c1ccccc1 (centres undefined) | 1.69 |

| SMILES | IFI [%] |
| --- | --- |
| CC1(C)N=C(N)N=C(N)N1c1cccc(I)c1 | 0.68 |
| O=C(c1ccc(-c2ccc(-c3nc4cc(F)ccc4[nH]3)cc2)cc1)N1CCCCC1CN1CCC(O)C1 (centres undefined) | 3.54 |
| CC(=O)c1cccc(Nc2nc3ccc(OCc4cc(Cl)cc(Cl)c4)c(C#N)c3[nH]2)c1 | 1.61 |
| O=C(Nc1ccc(-c2cccc(-c3nc4cc(F)ccc4[nH]3)c2)cc1)Nc1ccc(Cl)c(Cl)c1 | 8.08 |
| Cc1noc(C)c1-c1cccc(CNCc2ccc(-c3ccc(-c4nc5ccccc5[nH]4)s3)cc2)c1 | 8.82 |
| c1ccc(CNc2cc(-c3ccccn3)nc(-c3ccccn3)n2)cc1 | 15.5 |
| Cc1cc(NC(=O)Nc2ccc3nccc(N4CCN(C)CC4)c3c2)ccc1Br | 3.68 |
| COc1cccc(-c2cnc(N)c(-c3nc4ccc(C(F)(F)F)cc4[nH]3)c2)c1 | 3.77 |
| CN(C)CCCNCc1ccc(-c2ccc(C(F)(F)F)cc2)cc1 | 3.6 |
| Cc1nc(N)nc(N)c1CCCOc1cccc(Cl)c1 | 0.73 |
| COc1ccc(-c2nonc2NC(=O)c2ccc(C(C)(C)C)cc2)cc1OC | 3 |
| Cc1cc2c(NC(=O)NC3CCN(CCc4cccc(Cl)c4)CC3)cccc2cn1 | 2.19 |
| CCN(CC)CCN(Cc1ccc(-c2ccc(C(F)(F)F)cc2)cc1)C(=O)Cn1c(CCc2cccc(F)c2F)nc(=O)c2ccc(C)cc21 | 7.14 |
| COc1ccc2ccc(F)c(CCN3CCC(NCc4cc5c(cn4)OCCO5)CC3)c2n1 | 1.96 |
| COc1cc(C(=O)Nc2cccc(-c3nc4ccccc4[nH]3)c2)ccc1OC(C)=O | 2.84 |
| CCCCCCCN(Cc1ccc(OC(C)(C)C(=O)OCC)cc1)C(=O)Nc1ccc(Cl)cc1OCC | -0 |
| NC(=O)c1ccc(NC(=O)CN(Cc2ccc(Cl)cc2)S(=O)(=O)c2ccccc2)cc1 | 0.93 |
| CN1CCCC(CN2CCN(Cc3cccc(-c4ccc(-c5nc6ccccc6[nH]5)cc4)c3)CC2)C1 (centres undefined) | 7.04 |
| O=C(NCc1ccc(Cl)c(Cl)c1)c1ccc(-c2nc3ccc(F)cc3[nH]2)cc1 | -0 |
| CCOC(=O)c1cccc(NC(=N)Nc2nc(C)cc(NCCc3ccccc3)n2)c1 | 5.52 |
